Results from PubChem BioAssay AID624417 (National Center for Advancing Translational Sciences (NCATS), 2012).
Out of some 410,000 compounds screened, about 6,400 (1.6%) were called active. This list was built around the results that the source calls inconclusive (neither active nor inactive); the mix of calls is not that of the screen. Calls come from the whole dose curve; as a rule, active = well fitted inhibition curve with a large enough effect; inconclusive = small, poorly fitted or top-dose-only effect; inactive = no such curve, though single readings can be large or run the other way. No potency is given beside an inconclusive call; the fits are too rough.

Target: Glucagon-like peptide 1 receptor (Homo sapiens) (UniProt P43220)
Test: qHTS of GLP-1 Receptor Inverse Agonists (Inhibition Mode); note: nearly all actives have a fitted effect of over 55% in size
Details: HEK293 GLP-1R CRE-luciferase, luminescence, 24 h, GLP-1R form is constitutively active; series mostly up to 38.3 µM
Method in brief: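 Assay principle: reduced luminescence from a cAMP-responsive reporter in HEK293 cells co-expressing a constitutively active GLP-1R. Conditions: 24 hr compound incubation, 37 deg C, 5% CO2.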
Potency is the fitted concentration of half-maximal effect; tags give direction and shape of the fitted curve.

Chain of UniProt P43220 (P43220 whole entry, looked up): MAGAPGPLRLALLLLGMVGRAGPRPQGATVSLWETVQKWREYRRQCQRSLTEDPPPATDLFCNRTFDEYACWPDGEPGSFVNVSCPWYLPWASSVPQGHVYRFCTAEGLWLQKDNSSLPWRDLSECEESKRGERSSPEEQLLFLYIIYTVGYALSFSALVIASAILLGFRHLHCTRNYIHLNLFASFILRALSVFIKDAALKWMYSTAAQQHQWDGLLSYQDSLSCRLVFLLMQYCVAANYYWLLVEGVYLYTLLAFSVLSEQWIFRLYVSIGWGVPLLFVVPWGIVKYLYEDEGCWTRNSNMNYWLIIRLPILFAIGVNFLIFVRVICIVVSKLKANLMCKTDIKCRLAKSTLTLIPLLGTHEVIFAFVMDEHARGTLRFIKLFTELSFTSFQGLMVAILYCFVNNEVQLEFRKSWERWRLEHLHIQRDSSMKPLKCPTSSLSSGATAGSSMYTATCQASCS

| Structure (SMILES) | Potency |
| --- | --- |
| CC(=O)c1c(C)[nH]c(C(=O)OCC(=O)NCc2ccc(Cl)cc2)c1C | inconclusive [inhibitor, single point] |
| COc1cccc(-c2nn(-c3ccccc3)cc2CN2CCCO2)c1 | inconclusive [inhibitor, partial curve, poor fit] |
| COc1ccc(-n2nc3cc(C)c(NC(=O)c4ccc(-c5ccc(Cl)cc5)o4)cc3n2)cc1 | inactive |
| O=C(CCCOc1ccccc1)Nc1cccc(S(=O)(=O)N2CCCCCC2)c1 | inconclusive [inhibitor, single point] |
| COc1cc2cnc(-c3ccccc3)c(C(=O)c3ccc(F)cc3)c2cc1OC | inconclusive [inhibitor, single point] |
| CCc1ccccc1NC1=NCC(=O)N1Cc1ccccc1 | inconclusive [inhibitor, single point] |
| Cc1c(C(=O)NNC(=O)c2ccccc2O)oc2ccccc12 | inconclusive [inhibitor, single point] |
| O=C(CN1CCN(c2ccccc2)CC1)Nc1cccc([N+](=O)[O-])c1 | inconclusive [inhibitor, partial curve, poor fit] |
| Clc1ccc(/C=N\Nc2ccccc2)cc1 | active: 3.98 µM |
| COc1ccc(/C=C/C(=O)Nc2cccc(S(=O)(=O)N3CCOCC3)c2)cc1OC | inactive |
| CCCCn1nc(NS(=O)(=O)c2cccc3nonc23)c2cc3cccc(C)c3nc21 | inconclusive [inhibitor, single point] |
| NC(CCc1ccccc1)c1csc(NC(=O)Nc2cccc(C(F)(F)F)c2)n1 (configuration not stated) | inconclusive [inhibitor, single point] |
| Cc1ccc(S(=O)(=O)N2CCN(C(=O)CCC(=O)NCc3cccc(C(F)(F)F)c3)CC2)cc1 | inactive |
| O=C(NCC(c1cccs1)N1CCOCC1)c1ccccc1NS(=O)(=O)c1ccc(Cl)c([N+](=O)[O-])c1 (configuration not stated) | inconclusive [inhibitor, single point] |
| Cc1ccc2c(c1)C(c1ccc(F)cc1)N(C(=O)c1ccc(S(=O)(=O)N3CCCCC3)cc1)CC(=O)N2 (configuration not stated) | inconclusive [inhibitor, single point] |
| COc1ccc(OC)c(C(=O)COC(=O)c2cc(C)oc2C)c1 | inconclusive [inhibitor, single point] |
| COc1ccc(-c2csc3ncnc(Nc4cccc(OC)c4)c23)cc1 | inconclusive [inhibitor, single point] |
| CC1CCCC(C)N1S(=O)(=O)c1ccc(NC(=O)CNC2CCCC2)cc1 (configuration not stated) | inconclusive [inhibitor, partial curve, poor fit] |
| COC(c1ccccc1)c1nnc(CCC(=O)N2CCCCCCC2)o1 (configuration not stated) | inconclusive [inhibitor, single point] |
| CCOCCCNC(=O)c1ccc(-n2c(-c3ccccc3)cc3c2CCC(C)C3)cc1 (configuration not stated) | inconclusive [inhibitor, partial curve, poor fit] |
| COc1ccc([C@H]2/C=C\CN(C(=O)CC(C)(C)C)[C@@H](C)C(=O)N2Cc2ccc(F)cc2)cc1 | inconclusive [inhibitor, partial curve, poor fit] |

| Structure (SMILES) | Potency |
| --- | --- |
| Cc1cc(C)c2sc(NNC(=O)C3COc4ccccc4O3)nc2c1 (configuration not stated) | inconclusive [inhibitor, partial curve] |
| CCCc1ccc(O)c(N=Cc2cc(Br)cc(OCC)c2O)c1 | inconclusive [inhibitor, single point] |
| Nc1nn(-c2cccc(F)n2)cc1-c1ccccc1 | inconclusive [inhibitor, partial curve] |
| CCC(CC)NC(=O)Nc1ccc(F)c(Cl)c1 | inconclusive [inhibitor, single point] |
| Cc1oc(-c2ccc(C(=O)NCc3ccccc3)cc2)nc1CN1CCc2ccccc21 | active: 10 µM |
| O=C(Nc1ccccc1N1CCN(C(=O)c2ccccc2)CC1)c1ccco1 | inconclusive [inhibitor, single point] |
| O=C(CC(Cc1ccccc1)c1ccco1)NCc1ccco1 (configuration not stated) | inconclusive [inhibitor, single point] |
| O=C(NCC(c1cccs1)N1CCOCC1)C1CCN(S(=O)(=O)c2cccc(C(F)(F)F)c2)CC1 (configuration not stated) | inconclusive [inhibitor, single point] |
| Cc1ccc(NC(=O)C(=O)NCC(c2cccnc2)N2CCN(Cc3ccccc3)CC2)cc1F (configuration not stated) | inactive |
| Cc1cccc(/C=C/c2onc(C)c2S(=O)(=O)N2CCC(C(=O)N3CCCCC3)CC2)c1 | inconclusive [inhibitor, partial curve, poor fit] |
| COc1ccc(-c2[nH]c(-c3ccc(Cl)cc3)nc2SCC(=O)NCC2CCCO2)cc1 (configuration not stated) | inconclusive [inhibitor, single point] |
| CCC(=O)N1CCN(c2ccc(NC(=S)NC(=O)c3cccc([N+](=O)[O-])c3)cc2)CC1 | inactive |
| c1ccc(CNc2nc(-c3ccccn3)nc3ccccc23)cc1 | inconclusive [inhibitor, full curve, poor fit] |
| Clc1cccc(Cl)c1Cn1cnc2c(N3CCCCCC3)ncnc21 | inconclusive [inhibitor, single point] |
| CCN(CC)CCCN=C1N[C@@H](c2cccc(F)c2)C(C(=O)OC)=C(C)N1Cc1ccccc1 | inconclusive [inhibitor, partial curve, poor fit] |
| O=S(=O)(NCCc1csc2nc(-c3ccccc3)nn12)c1cc(F)ccc1F | inactive |
| Cc1ccc(-c2ccc(=O)n(CC(=O)NCCc3ccccc3)n2)cc1 | inactive |
| COc1ccc(Nc2nc(N)nc(CN3CCC(Cc4ccccc4)CC3)n2)cc1 | inconclusive [inhibitor, partial curve, poor fit] |
| CCCCN(C)CCCNC(=O)c1cc(-c2cccs2)nc2ccccc12 | inconclusive [inhibitor, partial curve, poor fit] |
| COc1ccc(CNC(=O)c2cc3cc(OC)ccc3oc2=O)cc1 | inconclusive [inhibitor, partial curve, poor fit] |
| CC(C)(C)c1cc(C(=O)O)n(Cc2ccc(Cl)cc2Cl)n1 | inconclusive [inhibitor, single point] |

| Structure (SMILES) | Potency |
| --- | --- |
| COc1ccc(CCNCc2ccc(-c3ccccc3)cc2)cc1OC | inconclusive [inhibitor, partial curve, poor fit] |
| Cc1cc(C)c2c(CC(=O)Nc3ccc(S(=O)(=O)Nc4nc(C)cc(C)n4)cc3)coc2c1 | inconclusive [inhibitor, partial curve, poor fit] |
| Cc1nn(Cc2ccc(Cl)cc2Cl)c(C)c1NC(=O)c1ccc(COc2cc(Cl)ccc2Cl)o1 | inconclusive [inhibitor, full curve, poor fit] |
| Cc1ccc2cccc(OCCCOc3ccccc3F)c2n1 | inconclusive [inhibitor, partial curve, poor fit] |
| COc1cc(OC)c(C2C3=C(CCCC3=O)Nc3nc4ccccc4n32)cc1OC (configuration not stated) | inactive |
| Cc1ccc(NC(=O)c2ccccc2O)cc1 | inconclusive [inhibitor, single point] |
| Cc1cc(NC(=O)COc2ccc(C(C)(C)C)cc2)no1 | inconclusive [inhibitor, single point] |
| COc1ccccc1-c1nnc(NC(=O)C(C)C)s1 | inactive |
| CCC(C(=O)N1CCN(c2cccc(Cl)c2)CC1)c1ccccc1 (configuration not stated) | active: 5.01 µM |
| Cc1cccc(NC(=O)c2nc[nH]c2C(=O)NCCCCCNC(=O)OC(C)(C)C)c1 | inconclusive [inhibitor, partial curve, poor fit] |
| CCOC(=O)C1CCN(Cc2ccc(O)c3ncccc23)CC1 | inconclusive [inhibitor, single point] |
| CC(C)(C)S(=O)N1Cc2cc(C(=O)NCCCN3CCOCC3)nc(-c3cccc(-c4cc5ccccc5o4)c3)c2[C@@H]1CCO (some centres not stated) | inconclusive [inhibitor, single point] |
| CC(C)CC1C(=O)N(Cc2cn(CCC3OCCO3)nn2)CCS(=O)(=O)N1Cc1ccc(-c2cccc(N(C)C)c2)cc1 (configuration not stated) | inconclusive [inhibitor, single point] |
| CCC(c1nnnn1CC1CCCO1)N(CCCO)Cc1cc2cccc(C)c2[nH]c1=O (configuration not stated) | inactive |
| CC(C)C[C@@H](CN1CCCC1CN1C(=S)NC[C@@H]1Cc1ccc(O)cc1)N1C[C@H](Cc2ccc(O)cc2)N(CCc2ccccc2)C1=S (some centres not stated) | active: 7.94 µM |
| Cc1ccnc(NC(=O)c2ccc(C(=O)c3ccccc3)cc2)c1 | inconclusive [inhibitor, full curve, poor fit] |
| Cc1ccc2c(CNCc3ccc(C)o3)c(C(=O)O)n(Cc3ccccc3C)c2c1 | inactive |
| Cc1ccc(N(C(=O)CNC(=O)c2ccco2)C(C(=O)NCC2CCCO2)c2ccccc2)cc1C (configuration not stated) | inconclusive [inhibitor, single point] |
| COc1ccc(C(=O)c2cnc3ccccc3c2-c2ccccc2)cc1 | inconclusive [inhibitor, partial curve, poor fit] |
| Cn1c(C(=O)Nc2ccccc2)cc2sccc21 | inconclusive [inhibitor, single point] |
